# Experimental data taken from the supplement of paper PMC8728848.
# Some of the results follow.
# Tests used:
# Test in all cases: glycan array binding signal (z-score within array); higher = stronger binding
# Conditions in all cases: glycan notation: IUPAC condensed, linker removed
# [1] = target: Fuc(a1-2)Gal6S(b1-3)GlcNAc
# Method in brief: (§1)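 The binding signal is a Z-score computed within each array and averaged over linkers. Arrays of the same protein sequence at different concentrations or buffers were also averaged together. Data originate from 3228 arrays in the Consortium for Functional Glycomics database, kept only where the protein sequence was available.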
# [2] = target: Fuc(a1-2)Gal6S(b1-3)GlcNAc6S
# Method in brief: as §1
# [3] = target: Fuc(a1-2)Gal6S(b1-4)Glc
# Method in brief: as §1
# [4] = target: Fuc(a1-2)Gal6S(b1-4)Glc6S
# Method in brief: as §1
# [5] = target: Fuc(a1-2)[Gal(a1-3)]Gal
# Method in brief: as §1
# [6] = target: Fuc(a1-2)[Gal(a1-3)]Gal(b1-3)GalNAc
# Method in brief: as §1
# [7] = target: Fuc(a1-2)[Gal(a1-3)]Gal(b1-3)GalNAc(b1-3)Gal(a1-4)Gal(b1-4)Glc
# Method in brief: as §1
# [8] = target: Fuc(a1-2)[Gal(a1-3)]Gal(b1-3)GlcNAc
# Method in brief: as §1
# [9] = target: Fuc(a1-2)[Gal(a1-3)]Gal(b1-3)GlcNAc(b1-2)Man(a1-3)[Fuc(a1-2)[Gal(a1-3)]Gal(b1-3)GlcNAc(b1-2)Man(a1-6)]Man(b1-4)GlcNAc(b1-4)GlcNAc
# Method in brief: as §1
# [10] = target: Fuc(a1-2)[Gal(a1-3)]Gal(b1-3)GlcNAc(b1-2)Man(a1-3)[Fuc(a1-2)[Gal(a1-3)]Gal(b1-3)GlcNAc(b1-2)Man(a1-6)]Man(b1-4)GlcNAc(b1-4)[Fuc(a1-6)]GlcNAc
# Method in brief: as §1
# [11] = target: Fuc(a1-2)[Gal(a1-3)]Gal(b1-3)GlcNAc(b1-3)GalNAc
# Method in brief: as §1
# [12] = target: Fuc(a1-2)[Gal(a1-3)]Gal(b1-3)GlcNAc(b1-6)GalNAc
# Method in brief: as §1
# [13] = target: Fuc(a1-2)[Gal(a1-3)]Gal(b1-4)Glc
# Method in brief: as §1
# [14] = target: Fuc(a1-2)[Gal(a1-3)]Gal(b1-4)GlcNAc
# Method in brief: as §1
# [15] = target: Fuc(a1-2)[Gal(a1-3)]Gal(b1-4)GlcNAc(b1-2)Man
# Method in brief: as §1
# [16] = target: Fuc(a1-2)[Gal(a1-3)]Gal(b1-4)GlcNAc(b1-2)Man(a1-3)[Fuc(a1-2)[Gal(a1-3)]Gal(b1-4)GlcNAc(b1-2)Man(a1-6)]Man(b1-4)GlcNAc(b1-4)GlcNAc
# Method in brief: as §1
# [17] = target: Fuc(a1-2)[Gal(a1-3)]Gal(b1-4)GlcNAc(b1-2)Man(a1-3)[Fuc(a1-2)[Gal(a1-3)]Gal(b1-4)GlcNAc(b1-2)Man(a1-6)]Man(b1-4)GlcNAc(b1-4)[Fuc(a1-6)]GlcNAc
# Method in brief: as §1
# [18] = target: Fuc(a1-2)[Gal(a1-3)]Gal(b1-4)GlcNAc(b1-3)GalNAc
# Method in brief: as §1
# [19] = target: Fuc(a1-2)[Gal(a1-3)]Gal(b1-4)GlcNAc(b1-3)[Fuc(a1-2)[Gal(a1-3)]Gal(b1-4)GlcNAc(b1-6)]GalNAc
# Method in brief: as §1
# [20] = target: Fuc(a1-2)[Gal(a1-3)]Gal(b1-4)GlcNAc(b1-6)GalNAc
# Method in brief: as §1
# [21] = target: Fuc(a1-2)[Gal(a1-3)]Gal(b1-4)[Fuc(a1-3)]Glc
# Method in brief: as §1
# [22] = target: Fuc(a1-2)[Gal(a1-3)]Gal(b1-4)[Fuc(a1-3)]GlcNAc
# Method in brief: as §1
# [23] = target: Fuc(a1-2)[Gal(a1-3)]Gal(b1-4)[Fuc(a1-3)]GlcNAc(b1-3)GalNAc
# Method in brief: as §1
# [24] = target: Fuc(a1-2)[Gal(a1-4)]Gal(b1-4)GlcNAc
# Method in brief: as §1
# [25] = target: Fuc(a1-2)[GalNAc(a1-3)]Gal
# Method in brief: as §1
# [26] = target: Fuc(a1-2)[GalNAc(a1-3)]Gal(b1-3)GalNAc(a1-3)[Fuc(a1-2)]Gal(b1-4)GlcNAc
# Method in brief: as §1
# [27] = target: Fuc(a1-2)[GalNAc(a1-3)]Gal(b1-3)GalNAc(b1-3)Gal(a1-4)Gal(b1-4)Glc
# Method in brief: as §1
# [28] = target: Fuc(a1-2)[GalNAc(a1-3)]Gal(b1-3)GlcNAc
# Method in brief: as §1
# [29] = target: Fuc(a1-2)[GalNAc(a1-3)]Gal(b1-3)GlcNAc(b1-2)Man(a1-3)[Fuc(a1-2)[GalNAc(a1-3)]Gal(b1-3)GlcNAc(b1-2)Man(a1-6)]Man(b1-4)GlcNAc(b1-4)GlcNAc
# Method in brief: as §1
# [30] = target: Fuc(a1-2)[GalNAc(a1-3)]Gal(b1-3)GlcNAc(b1-2)Man(a1-3)[Fuc(a1-2)[GalNAc(a1-3)]Gal(b1-3)GlcNAc(b1-2)Man(a1-6)]Man(b1-4)GlcNAc(b1-4)[Fuc(a1-6)]GlcNAc
# Method in brief: as §1
# [31] = target: Fuc(a1-2)[GalNAc(a1-3)]Gal(b1-3)GlcNAc(b1-3)GalNAc
# Method in brief: as §1
# [32] = target: Fuc(a1-2)[GalNAc(a1-3)]Gal(b1-3)GlcNAc(b1-6)GalNAc
# Method in brief: as §1
# [33] = target: Fuc(a1-2)[GalNAc(a1-3)]Gal(b1-4)Glc
# Method in brief: as §1
# [34] = target: Fuc(a1-2)[GalNAc(a1-3)]Gal(b1-4)GlcNAc
# Method in brief: as §1
# [35] = target: Fuc(a1-2)[GalNAc(a1-3)]Gal(b1-4)GlcNAc(b1-2)Man
# Method in brief: as §1
# [36] = target: Fuc(a1-2)[GalNAc(a1-3)]Gal(b1-4)GlcNAc(b1-2)Man(a1-3)[Fuc(a1-2)[GalNAc(a1-3)]Gal(b1-4)GlcNAc(b1-2)Man(a1-6)]Man(b1-4)GlcNAc(b1-4)GlcNAc
# Method in brief: as §1
# [37] = target: Fuc(a1-2)[GalNAc(a1-3)]Gal(b1-4)GlcNAc(b1-2)Man(a1-3)[Fuc(a1-2)[GalNAc(a1-3)]Gal(b1-4)GlcNAc(b1-2)Man(a1-6)]Man(b1-4)GlcNAc(b1-4)[Fuc(a1-6)]GlcNAc
# Method in brief: as §1
# [38] = target: Fuc(a1-2)[GalNAc(a1-3)]Gal(b1-4)GlcNAc(b1-3)Gal(b1-4)GlcNAc
# Method in brief: as §1
# [39] = target: Fuc(a1-2)[GalNAc(a1-3)]Gal(b1-4)GlcNAc(b1-3)Gal(b1-4)GlcNAc(b1-3)Gal(b1-4)GlcNAc
# Method in brief: as §1
# [40] = target: Fuc(a1-2)[GalNAc(a1-3)]Gal(b1-4)GlcNAc(b1-3)GalNAc
# Method in brief: as §1
# [41] = target: Fuc(a1-2)[GalNAc(a1-3)]Gal(b1-4)GlcNAc(b1-3)[Fuc(a1-2)[GalNAc(a1-3)]Gal(b1-4)GlcNAc(b1-6)]GalNAc
# Method in brief: as §1
# [42] = target: Fuc(a1-2)[GalNAc(a1-3)]Gal(b1-4)GlcNAc(b1-6)GalNAc
# Method in brief: as §1
# [43] = target: Fuc(a1-2)[GalNAc(a1-3)]Gal(b1-4)[Fuc(a1-3)]GlcNAc
# Method in brief: as §1
# [44] = target: Fuc(a1-2)[GalNAc(a1-3)]Gal(b1-4)[Fuc(a1-3)]GlcNAc(b1-3)GalNAc
# Method in brief: as §1
# [45] = target: Fuc(a1-2)[GalNAc(a1-4)]Gal(b1-4)GlcNAc
# Method in brief: as §1
binder,measurement,setting,value
PX9961A-pdi-456-24-456 (Parabacteroides distasonis) (protein) KTSSTQLPTIDAISSVADLTNAVNGVYEQQATEVGSYGAEFTLLADLRSGDFQSISTVNHAGPMYRYQTGKNDEMVYSFYKLFYNSLARLNNVLAAAENLEGADVDILKGELYAMRALYHFDLARVFAKLPSTTDMNDLGIVLSTEVYPTDYIGTRATLQQTYDQILKDIETALPLLSKDKQTGHINYWGALAIRARAYLYLEKNKEALADCKEIIASSPYKLYTRDEYIGAWDKEGTNEAIFEILVTPNYNAQRNSIGYFTHASGYGECAATESFLEELAKHPGDIRTELFAKETDNGYDGTYPQKYKGRDGQIYVNNPKVVRLSEVYLIAAEAALKAGDTSAAAGYMNTLRKNRIENYTDVASITLDDILLERRLELFTEGHTAWDAWRNGKSVNNKFVGEVKPGDYRTIMAIPIGEITVSRGQLIQNPGY,glycan array binding signal (z-score),[1],-0.062
same,glycan array binding signal (z-score),[2],0.753
same,glycan array binding signal (z-score),[3],-0.556
same,glycan array binding signal (z-score),[4],-0.221
same,glycan array binding signal (z-score),[5],1.54
same,glycan array binding signal (z-score),[6],-0.144
same,glycan array binding signal (z-score),[7],0.058
same,glycan array binding signal (z-score),[8],-0.259
same,glycan array binding signal (z-score),[9],-0.367
same,glycan array binding signal (z-score),[10],-0.658
same,glycan array binding signal (z-score),[11],-0.494
same,glycan array binding signal (z-score),[12],-0.263
same,glycan array binding signal (z-score),[13],0.029
same,glycan array binding signal (z-score),[14],-0.239
same,glycan array binding signal (z-score),[15],-0.231
same,glycan array binding signal (z-score),[16],-0.024
same,glycan array binding signal (z-score),[17],-0.332
same,glycan array binding signal (z-score),[18],0.176
same,glycan array binding signal (z-score),[19],0.596
same,glycan array binding signal (z-score),[20],-0.28
same,glycan array binding signal (z-score),[21],-0.472
same,glycan array binding signal (z-score),[22],-0.227
same,glycan array binding signal (z-score),[23],-0.012
same,glycan array binding signal (z-score),[24],-0.286
same,glycan array binding signal (z-score),[25],-0.073
same,glycan array binding signal (z-score),[26],-0.263
same,glycan array binding signal (z-score),[27],-0.246
same,glycan array binding signal (z-score),[28],-0.378
same,glycan array binding signal (z-score),[29],-0.57
same,glycan array binding signal (z-score),[30],-0.098
same,glycan array binding signal (z-score),[31],-0.485
same,glycan array binding signal (z-score),[32],-0.088
same,glycan array binding signal (z-score),[33],0.428
same,glycan array binding signal (z-score),[34],-0.142
same,glycan array binding signal (z-score),[35],-0.43
same,glycan array binding signal (z-score),[36],-0.443
same,glycan array binding signal (z-score),[37],-0.089
same,glycan array binding signal (z-score),[38],0.539
same,glycan array binding signal (z-score),[39],-0.097
same,glycan array binding signal (z-score),[40],-0.524
same,glycan array binding signal (z-score),[41],0.144
same,glycan array binding signal (z-score),[42],-0.015
same,glycan array binding signal (z-score),[43],-0.279
same,glycan array binding signal (z-score),[44],0.753
same,glycan array binding signal (z-score),[45],0.192
